Source: PubChem BioAssay (NCI)
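Test compounds were applied to cells in 96-well plates for 48 hours at 5 doses. GI50 = concentration required for 50% inhibition of growth. TGI: total growth inhibition.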 Peptide text beside a SMILES is read from it. * marks the point of attachment. X33 = O=C(c1ccc(-c2ccc(Cl)cc2Cl)o1)*

Test system: NCI-H322M lung
Assay: growth of human tumour cells (NCI), 48 h

| Structure (SMILES) | TGI [µM] | GI50 [µM] |
| --- | --- | --- |
| CCC1(C)N=C(c2cnccn2)NN1c1ccc(Cl)cc1 (stereo not drawn) | > 100 | – |
| Cc1cc[c-]cc1.Fc1c[c-]c(-c2ccccn2)c(F)c1.[Pt+2].c1ccc(P(C[PH+](c2ccccc2)c2ccccc2)c2ccccc2)cc1 | 10.3 | 2.5 |
| COC(=O)CCC(=O)CC1CC(=O)C2CCCN12 (stereo not drawn) | > 100 | – |
| O=S1OC2(c3ccccc3-c3ccccc32)c2ccccc21 (stereo not drawn) | > 100 | – |
| O=C1c2ccccc2C(=O)N1Cc1ccccc1-c1c2nc(c(-c3ccccc3CN3C(=O)c4ccccc4C3=O)c3ccc([nH]3)c(-c3ccccc3CN3C(=O)c4ccccc4C3=O)c3nc(c(-c4ccccc4CN4C(=O)c5ccccc5C4=O)c4ccc1[nH]4)C=C3)C=C2 | > 100 | – |
| COc1ccc2c(c1)C(C)Cc1c(ncnc1-n1c(C)nc3ccccc31)N2C (stereo not drawn) | 27.6 | 10.6 |
| CN(NC(=O)c1cccs1)C1=NCCCN1 | > 100 | – |
| O=C(Nc1ccc(CO)cc1)c1coc2ccccc2c1=O | > 100 | > 100 |
| Cc1ccc(/C(O)=C/C(=O)C(=O)/C=C(\O)c2ccc(C)cc2C)c(C)c1 | 55.2 | – |
| O=c1nc2c(c(-c3ccccc3Cl)[nH]1)COC/C2=C\c1ccccc1Cl | > 100 | – |
| CCCSc1ccc2[nH]c(/N=C/c3ccco3)cc2c1 | 92.5 | – |
| Oc1cn(-c2ccc(Cl)cc2)nc1-c1n[nH]c(=S)n1C1CCCCC1 | 42.2 | 0.332 |
| CCC(C)C(NC(=O)CNC(=O)C(Cc1ccccc1)NC(=O)C1CCCN1C(=O)c1ccc(-c2ccc(Cl)cc2Cl)o1)C(=O)OC (stereo not drawn) (X33-PFGI-OMe; configuration not given here) | > 100 | – |
| CC(C)CNC(=O)O | > 100 | – |
| COc1cc2ccc3c4cc(OC)c(OC(C)C)cc4cnc3c2cc1OC | > 100 | – |
| CCCCC1(CN2CCOCC2)S/C(=N/c2nc(CC(=O)OCC)cs2)NC1=O (stereo not drawn) | > 100 | 35.6 |
| Nc1c(Cl)ncnc1N[C@@H]1C[C@H]1CO | > 100 | – |
| CCOP(=O)(OCC)c1c(C(=O)OC)cc(=O)[nH]c1-c1ccc(C)cc1 | > 54.3 | – |
| C=CCSS/C=C/CS(=O)CC=C (stereo not drawn) | > 100 | – |
| CC1=NN(C(=O)CC(=O)N(C(=O)c2ccccc2Cl)c2ccc(C)cc2)C(=O)C1N=Nc1ccc([N+](=O)[O-])cc1 (stereo not drawn) | > 100 | – |
| C/C=C/C(O)P1(=O)N(Cc2ccccc2)[C@@H]2CCCC[C@H]2N1Cc1ccccc1 (stereo partly drawn) | > 25 | – |
| C1C[OH+]CCNCC[OH+]CC[OH+]CCN1.[Cl-].[Pt+4] | > 100 | > 100 |
| O=C(Cc1ccccc1)NN1C(=O)C(Cl)C1c1ccc(O)cc1 (stereo not drawn) | > 100 | – |
| CC1=NN2C(=N)/C(=C/c3ccco3)C(=O)N=C2S1 | > 100 | – |
| O=c1[nH]nc(Cc2ccc([N+](=O)[O-])cc2)n1CCO | > 100 | – |

| Structure (SMILES) | TGI [µM] | GI50 [µM] |
| --- | --- | --- |
| C[C@]12CC[C@@H]3c4ccc(O)cc4CC[C@H]3[C@@H]1CC[C@@H]2NS(=O)(=O)c1cccc(F)c1 | 22.3 | 9 |
| Cc1cc2c(cc1Cl)SC(=Nc1ccc(Cl)cc1)N(S(=O)(=O)c1ccccc1)S2(=O)=O | 61.4 | 18.5 |
| CC(C)S(=O)(=O)c1ccccc1Nc1nc(Nc2cccc(NC(=O)CN)c2)ncc1Cl | 9.92 | 1.14 |
| O=c1c2c([N+](=O)[O-])cccc2nc2[nH]c3ccccc3n12 | > 75 | – |
| O=C1c2ccc3c4ccccc4n(Cc4ccccc4)c3c2C(=O)N1c1ccccc1 | > 70.6 | – |
| CC(=O)OC1CC2C(C)(C)OC(=O)CC(OC(C)=O)[C@]2(C)C2CCC3(C)C(=CCC3[C@H]3COC(=O)C3)[C@]12C (stereo partly drawn) | > 100 | – |
| CC1(C)O/C(=C\c2ccccc2)C(=O)/C(=C/c2ccccc2)O1 | > 100 | – |
| N#Cc1nc(-c2cccs2)oc1N | > 100 | – |
| N.N.N.N.[Cl-].[Co+3].[N-]=[N+]=[N-].[N-]=[N+]=[N-] | > 100 | > 100 |
| COC(=O)/C(C)=C/[N+](=O)[O-] | 34.6 | – |
| C[C@]12CC[C@H](O)C[C@H]1CC[C@@H]1[C@@H]2CC[C@]2(C)[C@@H](C3=CC(=O)OC3)CC[C@]12O | 0.826 | – |
| Cc1cc(NS(=O)(=O)c2ccc(Nc3c4ccccc4nc4c(C(=O)NCCN(C)C)cccc34)cc2)no1 | > 100 | – |
| CC(C)N=c1cc2n(-c3ccc(Cl)cc3)c3ccccc3nc-2cc1Nc1ccc(Cl)cc1 | > 100 | 2.03 |
| O=C(COc1ccc(/C=C2\CSc3ccccc3C2=O)cc1)Nc1nccs1 | 41.4 | 19.9 |
| NC(N)=NCCCCCNc1noc(Cc2c[nH]c3cc(Br)ccc23)n1 | 28.3 | 12.1 |
| CCOC(=N)CC(=O)Nc1cccc(C)c1C | > 100 | – |
| c1cc2nnnn2nc1N1CCCC1 | > 100 | – |
| Cc1cc(S(=O)(=O)N/N=C(\Sc2cc(Cl)c(C)cc2S(N)(=O)=O)c2ccc(Cl)cc2)c(Cl)cc1Cl | > 100 | > 100 |
| COc1cccc(/C(COc2ccc3c(c2)oc(=O)c2cc(OC)ccc23)=N/O)c1 | > 100 | > 100 |
| N#CC(=NCCO)C1=C(O)c2ccccc2C1=O | > 100 | – |
| CCn1c(CO)nn(-c2cc(O[C@@H](C)C(F)(F)F)c(C(=O)Nc3c(F)cccc3Cl)cc2F)c1=O | > 100 | 0.348 |
| CCCCOC(=O)NC(=O)c1cn(CCCOC(=O)NCCCCCCNC(=O)OCCCn2cc(C(=O)NC(=O)OCCCC)c(=O)[nH]c2=O)c(=O)[nH]c1=O | > 100 | – |
| C=C1C(=O)O[C@H]2/C=C(/C)C3=CC(=O)[C@@](C)(C[C@@H](OC(=O)/C(C)=C\C)C12)O3 (stereo partly drawn) | 25 | – |
| Cc1[nH]c(=O)[nH]c(=O)c1/C=C/C(=O)O | > 1000 | – |
| N#C/C(=C\n1ccc(=O)[nH]c1=S)C(N)=O | > 100 | – |

| Structure (SMILES) | TGI [µM] | GI50 [µM] |
| --- | --- | --- |
| COCCOc1cnc2ccn([C@H](C)c3nnc4c(F)cc(-c5cnn(C)c5)cn34)c(=O)c2c1 | > 100 | > 100 |
| O=C(Nc1ccc(-n2cc(-c3ccncc3)c(-c3ccc(Cl)c(O)c3)n2)cc1)Nc1ccc(Cl)c(C(F)(F)F)c1 | 3.95 | 1.58 |
| NC1=NS(=O)(=O)Nc2nc(-c3ccc([N+](=O)[O-])o3)[nH]c21 | 30 | – |
| COc1ccc(O)cc1 | > 100 | – |
| CN(C)Cc1cc(C(=O)/C=C/c2ccccc2Cl)cc(CN(C)C)c1O | 8.43 | – |
| CC(C)(C=O)CC(C#N)/C(=N\NC(N)=O)C(=O)Nc1ccccc1C(N)=O (stereo not drawn) | > 100 | – |
| COc1ccc(-c2ccc(/C=N/n3c(C)n[nH]c3=S)o2)c([N+](=O)[O-])c1 | > 100 | > 100 |
| COc1ccc2c(c1)[C@@]13CCCC[C@H]1[C@@H](C2)N(C)CC3=O | > 100 | – |
| OCC1OC(n2cnc3c(Cl)nc(Nc4ccccc4)nc32)CC1O (stereo not drawn) | > 100 | – |
| COc1ccc(OC)c2c(/C=C/c3ccc(N(C)C)cc3)ccnc12 | > 10 | – |
| COc1ccc(C(=O)COc2cccc(/C=C3\Oc4ccc5ccccc5c4C3=O)c2)cc1 | 42.8 | 16.5 |
| CCOc1ccc(-c2nc(-c3oc4ccccc4c(=O)c3OC(C)=O)cs2)cc1 | > 10 | – |
| CC1(CF)SCc2nc3ccccc3n21 (stereo not drawn) | > 100 | – |
| CC(=O)c1ccc2c3c1[C@@H]1O[C@@H]1c1cccc(c1-3)[C@@H]1O[C@H]21 | 30.6 | – |
| COc1ccc(-c2c[nH]c(=S)n2-c2ccc(OC)cc2)cc1 | > 50 | > 50 |
| CCn1nc2c3c(ncn3C(C)(C)O2)c1=O | > 100 | – |
| Cc1cc(C)c(C2[C@H]3C(=O)N(c4ccc(Cc5ccc(N6C(=O)[C@@H]7ON(c8ccccc8)C(c8c(C)cc(C)cc8C)[C@@H]7C6=O)cc5)cc4)C(=O)[C@H]3ON2c2ccccc2)c(C)c1 (stereo partly drawn) | > 100 | – |
| CC1CCOc2ccc(cc2)C=Nc2ccc(cc2)CCc2ccc(cc2)N=Cc2ccc(cc2)OCC1 (stereo not drawn) | > 100 | – |
| N#Cc1c(-c2ccccc2)nc(-c2ccccc2)sc1=S | > 100 | – |
| O=C(NCCCCCCNCc1cccc2ccccc12)Nc1cccc2ccccc12 | > 100 | – |
| O=C1CCCCC(=O)OC2(CCCCC2=O)CC1 (stereo not drawn) | > 100 | – |
| C=CCNC(=O)N(CCC)CCCCC(NC(C)=O)C(=O)NCc1ccccc1 (stereo not drawn) | > 100 | – |
| O=c1c2ncn(COCCCl)c2n(-c2ccccc2)c(=S)n1-c1ccccc1 | > 100 | – |
| CCOC(=O)c1ccc(N2C(=S)N(C(=O)c3ccccc3)C(=Nc3ccccc3)C2=Nc2ccccc2)cc1 | > 100 | – |
| C[C@H](N)C(=O)Nc1ccc(-c2nc3ccccc3s2)cc1 | 75.5 | – |

| Structure (SMILES) | TGI [µM] | GI50 [µM] |
| --- | --- | --- |
| CC1=NN(c2ccc(S(=O)(=O)O)cc2)C2(C1)SCC(=O)N2c1nc2ccccc2s1 (stereo not drawn) | > 100 | – |
| O=c1[nH]c2cc(Cl)ccc2nc1/C(=N\O)C(O)c1ccc(Cl)cc1Cl (stereo not drawn) | > 100 | – |
| Nn1c(CCCCCCCCc2nnc(COc3ccc(Cl)cc3)n2N)nnc1COc1ccc(Cl)cc1 | > 100 | – |
| CCOC(=O)/C=C(\C(=O)OCC)n1cc(C)c(=O)n(Cc2cnnn2CCCCOC(C)=O)c1=O | > 59.9 | – |
| CC(=O)Nc1cc2c(s1)CCC1CC(=O)NN=C21 (stereo not drawn) | > 100 | – |
| Cc1ccc(-c2cc(N)n(-c3nc4c(c(=O)n(C)c(=O)n4C)n3C)n2)cc1 | > 100 | – |
| COc1ccc(Nc2nc(NS(=O)(=O)c3cc(C)c(Cl)cc3S)n[nH]2)cc1 | > 100 | – |
| Cc1cc(N/N=C/c2nc(-c3ccc(Br)cc3)oc2C)c2cc(Br)ccc2n1 | 18.3 | 5.53 |
| CN(CCCNC(=O)Cc1ccc2ccc3cccc4ccc1c2c34)CCCNc1cc(-c2ccc3ccccc3c2)nc2ccccc12 | 2.88 | 1.5 |
| CCN1C(=O)C(=C/C=C/c2ccc([N+](=O)[O-])cc2)C(=O)N(CC)C1=S | > 100 | – |
| COc1cc(Nc2c3ccccc3nc3ccccc23)ccc1NS(C)(=O)=O | 19.8 | – |
| O=c1[nH]/c(=C/c2ccc(OCc3ccccc3)cn2)c(=O)[nH]/c1=C/c1ccc(O)cc1 | > 100 | – |
| Cc1cc(C)cc(Nc2cc(=O)[nH]c(=O)[nH]2)c1 | > 100 | – |
| [Au+].[Au+].[Au+].[c-]1nccn1Cc1ccccc1.[c-]1nccn1Cc1ccccc1.[c-]1nccn1Cc1ccccc1 | 37.5 | 17.6 |
| CCCC(C)NC1=C(NC(C)=O)C(=O)c2ccccc2C1=O (stereo not drawn) | > 100 | – |
| COc1ccc(/C=N/N=C(\N)NO)c(O)c1 | > 10 | – |
| CN[C@@H](C)[C@H](NC)c1ccccc1 | > 100 | – |
| O=C(Nc1ccc(-c2ccccc2)cc1)C1CCN(S(=O)(=O)c2ccccc2Cl)CC1 | > 100 | > 100 |
| COC(=O)/C(C#N)=C1\CCC(O)N1 (stereo not drawn) | > 100 | – |
| N=C(N)c1ccc(N=Nc2c(O)ccc3c2[nH]c2ccccc23)cc1 | 41.3 | – |
| CCC(C)(C)c1ccc(OCCCCCCN2CCNCC2)cc1 | 9.26 | 3.05 |
| CCOC(=O)/C1=C(\C)N(c2ccc(C)cc2)C(=O)c2ccccc2C(=O)c2c(OC(C)=O)ccc(OC(C)=O)c21 | 38 | – |
